# Reference: paper PMC12820563, “FoxP3 forms a head-to-head dimer in vivo and stabilizes its multimerization on adjacent microsatellites”
# This is one part of the list.
# Target: T1, MBP-FoxP1dN (Mus musculus, UniProt P58462 326-579)
# T1 sequence: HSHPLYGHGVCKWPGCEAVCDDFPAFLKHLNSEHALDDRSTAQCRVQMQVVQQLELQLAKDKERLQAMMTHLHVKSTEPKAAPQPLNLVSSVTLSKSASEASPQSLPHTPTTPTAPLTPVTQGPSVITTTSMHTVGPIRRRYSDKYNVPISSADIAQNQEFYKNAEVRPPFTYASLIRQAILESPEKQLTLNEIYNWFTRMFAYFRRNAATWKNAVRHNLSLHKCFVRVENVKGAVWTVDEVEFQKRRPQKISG
# Experiment: PD-seq (MBP pull-down with sequencing); 20 mM Tris-HCl pH 7.5, 100 mM NaCl, 1.5 mM MgCl2, 0.4 uM protein, 0.1 uM dsDNA library, 30 min, room temperature, amylose pull-down; high values mean tight binding
# Conditions: protein: recombinant; tags: His6-MBP; chain copies: 2; dsDNA, one strand shown
# Procedure, shortened: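 A degenerate double-stranded DNA library, filled in with Klenow, was added at 0.1 µM to 0.4 µM His6-MBP-tagged mouse FoxP3 or FoxP1 fragment lacking the N-terminus, expressed in E. coli. Incubation lasted 30 min at room temperature in Tris pH 7.5 buffer with NaCl and MgCl2, after which complexes were collected on amylose resin, washed three times, digested with proteinase K to free the DNA, barcoded by PCR and sequenced by Illumina. Binding is the pooled-replicate reads-per-million enrichment of pull-down over input.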
row,Sequence,binding signal
1,GATGATTGTTCTCCCAGCTGATGAATTTCCCCCTTCGAGTAAACAAATTTTCCTAATCTTTCTGTTCAAGCGCCATCTAC,0.831 RPM ratio (pull-down/input)
2,GATGATTGTTCTCCCAGCTGATGAATTAAGAGCTTCGAGTAAACAAATTTTCCTAATCTTTCTGTTCAAGCGCCATCTAC,0.869 RPM ratio (pull-down/input)
3,GATGATTGTTCTCCCAGCTGATGAATTAGGGAGTTCGAGTAAACAAATTTTCCTAATCTTTCTGTTCAAGCGCCATCTAC,0.811 RPM ratio (pull-down/input)
4,GATGATTGTTCTCCCAGCTGATGAATTTCCAATATCGAGTAAACAAATTTTCCTAATCTTTCTGTTCAAGCGCCATCTAC,1.02 RPM ratio (pull-down/input)
5,GATGATTGTTCTCCCAGCTGATGAATTGAAACCATCGAGTAAACAAATTTTCCTAATCTTTCTGTTCAAGCGCCATCTAC,0.943 RPM ratio (pull-down/input)
6,GATGATTGTTCTCCCAGCTGATGAATTAGTCTACTCGAGTAAACAAATTTTCCTAATCTTTCTGTTCAAGCGCCATCTAC,0.853 RPM ratio (pull-down/input)
7,GATGATTGTTCTCCCAGCTGATGAATTTACACGCTCGAGTAAACAAATTTTCCTAATCTTTCTGTTCAAGCGCCATCTAC,1.17 RPM ratio (pull-down/input)
8,GATGATTGTTCTCCCAGCTGATGAATTGCTAAAATCGAGTAAACAAATTTTCCTAATCTTTCTGTTCAAGCGCCATCTAC,1.28 RPM ratio (pull-down/input)
9,GATGATTGTTCTCCCAGCTGATGAATTAAACCGTTCGAGTAAACAAATTTTCCTAATCTTTCTGTTCAAGCGCCATCTAC,0.979 RPM ratio (pull-down/input)
10,GATGATTGTTCTCCCAGCTGATGAATTCGCGGCGTCGAGTAAACAAATTTTCCTAATCTTTCTGTTCAAGCGCCATCTAC,0.934 RPM ratio (pull-down/input)
11,GATGATTGTTCTCCCAGCTGATGAATTAGCGAGGTCGAGTAAACAAATTTTCCTAATCTTTCTGTTCAAGCGCCATCTAC,0.812 RPM ratio (pull-down/input)
12,GATGATTGTTCTCCCAGCTGATGAATTATGATGATCGAGTAAACAAATTTTCCTAATCTTTCTGTTCAAGCGCCATCTAC,1.15 RPM ratio (pull-down/input)
13,GATGATTGTTCTCCCAGCTGATGAATTCGTCGCTTCGAGTAAACAAATTTTCCTAATCTTTCTGTTCAAGCGCCATCTAC,0.96 RPM ratio (pull-down/input)
14,GATGATTGTTCTCCCAGCTGATGAATTGGTGAACTCGAGTAAACAAATTTTCCTAATCTTTCTGTTCAAGCGCCATCTAC,0.914 RPM ratio (pull-down/input)
15,GATGATTGTTCTCCCAGCTGATGAATTTCGAGGCTCGAGTAAACAAATTTTCCTAATCTTTCTGTTCAAGCGCCATCTAC,0.821 RPM ratio (pull-down/input)
16,GATGATTGTTCTCCCAGCTGATGAATTGACCAGGTCGAGTAAACAAATTTTCCTAATCTTTCTGTTCAAGCGCCATCTAC,0.856 RPM ratio (pull-down/input)
17,GATGATTGTTCTCCCAGCTGATGAATTTGGCACCTCGAGTAAACAAATTTTCCTAATCTTTCTGTTCAAGCGCCATCTAC,0.841 RPM ratio (pull-down/input)
18,GATGATTGTTCTCCCAGCTGATGAATTTCTACTATCGAGTAAACAAATTTTCCTAATCTTTCTGTTCAAGCGCCATCTAC,1.01 RPM ratio (pull-down/input)
